The values that follow come from patent publication US5883107A, “Arginine mimic derivatives as enzyme inhibitors” (Corvas International, Inc., priority 1995, dated 1999).

Test [1] concerns citrated rat plasma. How it is done: The control clotting times (0 inhibitor) for rat and human plasma were seconds and 28 seconds, respectively. The concentration of Isomer B which caused a doubling of the control clotting time in rat and human plasma was 39 micromolar and 21 micromolar, respectively. The data represents the mean of two independent determinations.
Fresh frozen citrated pooled normal human plasma was obtained from George King Biomedical, Overland Park, KA. Pooled normal rat plasma was prepared from citrated whole blood collected from anesthetized rats using standard procedures. The plasma was flash frozen and stored at -80° C. until use. Measurements APTT was made using the Coag-A-Mate RA4 automated coagulometer (GenOklahoiagnostics, Organon Technica, Oklahoma City, Okla.) using the Automated APTT reagent (Organon Technica, Durham, N.C.) as the initiator of clotting according to the manufacturers instructions. The assay was conducted by making a series of dilution's of the test compounds in rapidly thawed plasma followed by adding 200 microliters to the wells of the assay carousel.

The subject of test [2] is citrated human plasma.

In the case of `CCCC(CCC)C(=O)N[C@@H](CC(=O)OC)C(=O)N1CCC[C@H]1C(=O)N[C@H](C=O)CC1CCCN(C(=N)N)C1` (single isomer, unassigned) [Isomer 11B, alpha-N-(propylpentanoyl)-aspartyl(beta-methyl ester)-prolyl-3-[3-piperidyl-(N-guanidino)]-L-alaninal], the “concentration which caused a doubling of the control clotting time (APTT)” value in test [1] came to 39 µM; in test [2] it was 21 µM.
